Laboratory results from the supplement of paper PMC7826260.
Some of the results follow. Each Rep nickase domain was tested in vitro on the same pool of single strands for 1 h at 37 °C with 3 µM enzyme; only the middle of the 90-letter strands is printed. Numbers give uncut DNA relative to the enzyme-free pool, as log2; uncut sequences lie near 0, cut ones below; no hit call is given. Shares of all reads are compared; uncut strands gain when others are lost, and binding without cutting may add a little.

How the values were obtained:
Test in all cases: uncleaved DNA left, log2 of reads against the no-enzyme library (log2 ratio); higher = less cleavage (more negative = more Rep cleavage of the k-mer); sequences stand for … in CTCGTCCG…ACCGGAGA
[1] = test system: T1, Rep nickase domain of Muscovy duck circovirus
T1 sequence (residues 1-111, tag not shown): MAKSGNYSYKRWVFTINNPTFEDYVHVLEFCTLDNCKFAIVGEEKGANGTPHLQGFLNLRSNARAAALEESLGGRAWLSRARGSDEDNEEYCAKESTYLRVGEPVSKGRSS
Description: (§1)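 A pool of 90-nt single-stranded DNAs with seven random bases just before the constant AC of the nick site (name = the seven bases) was cut by 3 µM recombinant His6-SUMO-tagged Rep nickase domain (300 nM DNA, 50 mM HEPES pH 8.0, 50 mM NaCl, 1 mM MnCl2, 1 h, 37 °C, three replicates). Uncut DNA was amplified and sequenced.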

[2] = test system: T2, Rep nickase domain of banana bunchy top virus
T2 sequence (residues 1-94, tag not shown): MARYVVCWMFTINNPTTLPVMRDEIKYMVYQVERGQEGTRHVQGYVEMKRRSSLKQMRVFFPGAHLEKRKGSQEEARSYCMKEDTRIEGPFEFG
Description: as §1

[3] = test system: T3, Rep nickase domain of cabbage leaf curl virus
T3 sequence (residues 1-116, tag not shown): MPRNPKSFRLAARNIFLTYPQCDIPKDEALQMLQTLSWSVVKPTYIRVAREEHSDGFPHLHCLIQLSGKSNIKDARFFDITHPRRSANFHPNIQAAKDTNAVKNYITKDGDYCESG
Description: as §1

[4] = test system: T4, Rep nickase domain of chickpea chlorotic dwarf virus
T4 sequence (residues 1-124, tag not shown): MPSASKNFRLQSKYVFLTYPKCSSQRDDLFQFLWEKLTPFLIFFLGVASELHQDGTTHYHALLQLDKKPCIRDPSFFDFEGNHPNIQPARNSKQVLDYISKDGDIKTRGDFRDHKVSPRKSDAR
Description: as §1

[5] = test system: T5, Rep nickase domain of faba bean necrotic yellows virus
T5 sequence (residues 1-98, tag not shown): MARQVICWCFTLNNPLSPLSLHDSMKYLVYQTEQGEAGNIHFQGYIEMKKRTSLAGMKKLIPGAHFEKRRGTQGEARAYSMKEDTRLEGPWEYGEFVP
Description: as §1

[6] = test system: T6, Rep nickase domain of maize striate mosaic virus
T6 sequence (residues 1-117, tag not shown): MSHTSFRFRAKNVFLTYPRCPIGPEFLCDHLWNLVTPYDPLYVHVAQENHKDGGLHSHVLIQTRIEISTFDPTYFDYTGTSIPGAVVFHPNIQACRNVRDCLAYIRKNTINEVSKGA
Description: as §1

[7] = test system: T7, Rep nickase domain of porcine circovirus 2
T7 sequence (residues 2-116, tag not shown): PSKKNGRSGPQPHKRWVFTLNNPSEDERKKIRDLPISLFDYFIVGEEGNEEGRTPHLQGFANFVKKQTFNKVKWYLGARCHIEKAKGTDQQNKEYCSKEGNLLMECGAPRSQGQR
Description: as §1

[8] = test system: T8, Rep nickase domain of tomato golden mosaic virus
T8 sequence (residues 1-124, tag not shown): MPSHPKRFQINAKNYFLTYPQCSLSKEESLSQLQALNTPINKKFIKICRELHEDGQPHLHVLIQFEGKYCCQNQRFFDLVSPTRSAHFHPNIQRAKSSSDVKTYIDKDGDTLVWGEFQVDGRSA
Description: as §1

[9] = test system: T9, Rep nickase domain of tomato yellow leaf curl virus
T9 sequence (residues 1-136, tag not shown): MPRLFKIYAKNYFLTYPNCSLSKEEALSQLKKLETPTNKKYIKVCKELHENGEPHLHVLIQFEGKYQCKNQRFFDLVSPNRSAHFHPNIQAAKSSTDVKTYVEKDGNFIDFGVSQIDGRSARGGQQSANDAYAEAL
Description: as §1

[10] = test system: T10, Rep nickase domain of wheat dwarf virus
T10 sequence (residues 1-137, tag not shown): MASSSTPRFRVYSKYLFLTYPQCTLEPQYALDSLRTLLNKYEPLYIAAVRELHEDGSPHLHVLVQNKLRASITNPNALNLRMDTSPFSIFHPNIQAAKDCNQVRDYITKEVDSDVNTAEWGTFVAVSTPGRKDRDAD
Description: as §1

Row | Sequence | uncleaved DNA left (log2) [1] | uncleaved DNA left (log2) [2] | uncleaved DNA left (log2) [3] | uncleaved DNA left (log2) [4] | uncleaved DNA left (log2) [5] | uncleaved DNA left (log2) [6] | uncleaved DNA left (log2) [7] | uncleaved DNA left (log2) [8] | uncleaved DNA left (log2) [9] | uncleaved DNA left (log2) [10]
1 | AACGCAT | 0.0698 | -0.0478 | -0.0529 | -1.22 | -0.0391 | -0.0094 | -0.0811 | -0.0898 | -0.0364 | -0.0238
2 | GATCGAA | -0.0463 | 0.102 | 0.237 | 0.422 | -0.0388 | 0.277 | 0.0451 | 0.0103 | 0.00148 | 0.00978
3 | GGGGCTG | -0.0125 | -0.0362 | 0.544 | 1.48 | -0.114 | 2.08 | 0.0525 | -0.0404 | -0.0448 | -0.0173
4 | GATGTTA | -0.035 | -0.0828 | 0.17 | 0.161 | 0.0608 | 1.15 | -0.0812 | 0.117 | -0.00561 | -0.116
5 | TTGATGG | -0.0395 | -0.0157 | 0.189 | 0.595 | 0.0296 | 0.277 | 0.113 | -0.0325 | -0.0766 | -0.045
6 | ACAAGGT | 0.0616 | -0.136 | 0.0524 | 0.128 | -0.0365 | -0.274 | 0.134 | 0.0485 | -0.0989 | -0.144
7 | CCTTCTT | -2.46 | -0.443 | -0.311 | -2.82 | -0.0896 | -0.848 | -2.83 | -0.111 | -0.0874 | -0.133
